Measured values reported in paper PMC10726135.
The other results are listed elsewhere or left out. At the low end of the ranking, values are background and their order means little. The protein was read in a cell extract, so binding may be indirect.

target: T1, HNF4alpha2 (COS-7 nuclear extract) (UniProt P41235); assay: protein-binding microarray; conditions: COS-7 nuclear extract on double-stranded Agilent 4x180k PBM; binding buffer, salt, pH and temperature not given; high values mean tight binding; double strand, one strand shown; sequences stand for … in …GCCTAGGGAGATTAGAGTATCGGTCGA
T1 sequence: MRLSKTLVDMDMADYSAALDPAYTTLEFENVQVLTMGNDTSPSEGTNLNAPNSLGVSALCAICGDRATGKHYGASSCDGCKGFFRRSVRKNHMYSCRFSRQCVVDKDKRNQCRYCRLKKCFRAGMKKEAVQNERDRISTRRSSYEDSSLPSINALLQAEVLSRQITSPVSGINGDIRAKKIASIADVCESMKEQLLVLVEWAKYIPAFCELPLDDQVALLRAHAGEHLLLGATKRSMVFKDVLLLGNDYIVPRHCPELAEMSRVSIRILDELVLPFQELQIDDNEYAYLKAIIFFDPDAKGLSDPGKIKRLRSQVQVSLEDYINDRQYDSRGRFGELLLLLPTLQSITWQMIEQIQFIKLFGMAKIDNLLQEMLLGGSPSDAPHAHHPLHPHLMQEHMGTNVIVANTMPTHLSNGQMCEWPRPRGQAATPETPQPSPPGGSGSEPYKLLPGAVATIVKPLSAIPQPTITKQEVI

Sequence | binding signal (log2 normalized intensity)
GTTTCAGCCTTATTCTTTGATCTCTTATCA | 1.32
GGTTATTTCAATTACAAAGCAACACAATGC | 0.64
TCGACTTCCTCTTCATATCAGTAAACCCCA | 4.64
GTGTAAAACAGGTGAAAGATAAGGGCTAGT | -1.17
ACAAGCCCGGCTTTGGGCTTGAGCAGCTGG | -1.18
GGCAAGCAAGTGACATGTTGGTGGGGGTGG | 0.69
GTCTGCCCAGAGCGGCAGCGCCTCCCGGTC | -1.39
TCCTGGCCTCCACTCCTCCTCCTTCCCTCC | 1.13
GGAAACTGCTTTGGTTAATCATTAGAGATG | 0.742
TTTGCTCTGCTACTAACTGCATGACTTCAG | -1.01
CGCCGCCTCTGCCTCTTGACCCCTTGGCCC | 5.17
GGGTGAGGGTGAGGGTTAGGGGTTAGGGTT | 0.567
TGCTAAGTGCCATGTAATCAAACTGAACTT | 1.74
CCACCTGCTGGTCAGGAGACTGCTCGGCAT | -1.06
TACCAAGGCTCAGAGGTCAAGTCACTGCTC | 2.57
TTCAAATGAGGGCAGGATGCATGCACTTCA | 0.631
ATTGTTATTTACGGTGGGCACCTCATACTA | -1.13
AGGTCAGAGGTGAGAGCAGAATGAGCAAGG | -1.16
GCTCCAGCGGGGTTTGAATCCCGGGAATCC | -1.1
CCCCTCCCCCAAGGCATGGGACCTTTGCCC | 6.5
AGAATGAGGGGCAGGCTTAGCTGGGCTAGC | -1.11
AAGCCAATCTCTCAAATCTAGCCAATGATG | -0.322
AGTTTTAGAGTCAATACTCCACAAGACCAC | -1.13
GAAACCCCTGTAAGTCCAAACAAAATACAA | -1.03

Sequence | binding signal (log2 normalized intensity)
TATCTGTTGTCAAACCCACATTCTTCACTG | 0.407
AGACTGAACAATTATTGCCTGGCATCTAAC | -0.954
GCCAACAACTAGGGCAAAGGTTAGCTTGGA | 4.27
CCAAGGGCTGTAGCAACCAAGTACCGCAAA | -1.13
GATAGTGGTTCCATTGTCCTACAGGACATT | 0.655
AGGATGGGCCATGACCTTTACCCCCATTTG | 7.65
ATGGGGTGGGGCAGAAAGGGCATGGATTTA | -1.17
TCAAAGAACAAGTATCCTGGTAGTGCGACA | -0.618
CGCTCCCCGACCTCCTGCTGCAGCTCTGGG | 0.0682
CCAGATATAGGGGAGGTCCTAAAGAGGATA | -0.775
TCTGTTTTAGTTGAGTGTGACAAGAAAGAC | 1.09
TCTGCTCCCCCTGCCCTTCGTCCTGAGCAG | 2.23
CACATGTACACAGGAATATCAACAGGAGCA | -0.901
TTACTTCCACATGTGGGGAAACTGGACTGT | 2.97
TGCCCTGGACATATTTGTCTTCCTATCTCC | 0.887
TATATGACTCTAGATTGTTTGTTCTTGCTA | -0.701
ATTCCTTGGACTCTGCCACTGGTTTGCACA | 1.15
TTTGCCTCCCTGCATTCCATTTCTGCCCCT | 3.98
CAAAGGATACAGATAAATAAATCAAGATCA | -1.17
ACCCTTGAACCTTCTTCTTGCAGTCCACAT | 1.59
GGTGGTATGTGTGTGCTTTAACAAGGTGTG | 2.23
GTCCAAACCCCTATGTTTAATGTATAAACC | 1.82
AGCCCAATAAAATCTGGCAGCTTAAAAATG | -1.08
TTCCTGCAGGCCCATCTGGGACTTCAAAGC | -1.02

Sequence | binding signal (log2 normalized intensity)
TTACTGGGGCCCATTGTATGAGGGTGAAGT | 1.01
ATCTCCCAGGTCTCCTCCACAGAGCACAGG | -1.07
TATCAGTAGTTGCAAATATTGCAGTGTAGA | 0.939
CATAGGAACAAAGGTTGGTGTGAACCAGGG | 1.13
CATGTGCAAAAGCACCCAAGGCTCTGCACA | -1.15
ATATTTTCTTTGTGCTATTTTTGGCTTGGT | 2.13
GCCTTCGCACCTGCCTGTCTCACCTCGCTA | -1.11
ATCTGACCTTTGGTTAACTTCTTAACTTGG | 2.97
CATAAAACCTAGACAGAAGCTTTCTGAGAA | -1.13
AGTGAGACGTTCCAAACCGGTCTTTCCACT | -1.21
GCAGGCCCATCTGGGACTTCAAAGCGCAGC | -1.18
CCCAGACTGAATCACACTACTGGCTTTTCT | -1.12
TTCCACACAGGTTATCTCATTACTCTGCAT | -1.07
CAGCAGATAAGGCTAATCCTTACACAGCAG | -1.15
TGCCCTGGGTAAACAGACCTCTCTCTCCCC | 1.77
AGATAACAAGGGCATGTAAAGGAGATTATC | -0.325
TTGCATGGTTGACATACTTCTGAGTTTTAT | 1.68
CAGTCTAAAGTAAATACCATTAGGGGGCAA | 1
TTGTTTACCTTGGTGTTTCTTTGATGTGAA | 1.86
AGTATTTAGCTTCCTCCCTTGGAATGTGAC | 1.86
CCTTAAGAGTTAATAACAGACCATGCCATG | -1.12
CAAAGCATAGCAAGAGTGACCTTTGCTCCA | 8.97
TCAGACTGGTGTAGTGGGGAGGGCATGGAC | 0.832
TGTCTGCTGAGAGATTCCTCTGCACAATAA | -1.14

Sequence | binding signal (log2 normalized intensity)
CTATGGAACATGGACTTTGAACCTCTCTTC | 8.15
TCCAAAGTCCAGGTGCTTTCTTCTTGATCA | 2.54
CGAAAGCCGGTTCCCGCCCAAGGAGACAGG | -1.23
CAAATATTAGAACAAACGACGCTCCTATCA | -1.06
ATTTCCAAAAGGTACCACTGTTTGCAGCTG | -1.12
TTAACAAAATTCAACAAGACCCTGCCCTTT | 3.32
TTCTGCTATCTGCCTGCAGGAGAGAGCAAA | -1.11
AGGTCAACTGCCCTCTCAAATTACAAGGAG | -0.51
CCTGGAATGACAAGAATTGGAACCCTGCTG | -0.575
TTCGGGGCACTGCTCCCTGCCCCTACCCCC | 5.02
GCAGCCTCCAAGATAAAGGGTCAGATTGTA | 1.22
TTTTTGATTACCTTAGGGGGAAACAAAAGA | -1.02
TCACCCTCTCCACCCCCATGCAAGTTCCCA | 5.26
TCTTCACCGTAAAGCCACCCCTTTCTCCTC | 3.28
AGGATTTTATTCAGGTGGCCACTGGCCCAG | 0.241
ACAGGGAGTCTGTTGCAAGCAATGGAGAGG | -1.13
TGCAACATACTGAAAAAGGGTTGTGCAAAC | 0.437
CCTCAGTAAATGCTGGAGATGAGGCTCAGA | -1.04
CCAGAGTAACTATGGGGCAAAGTGCAAGCA | 4.02
GGGCCTTTCCAGCAAATCCCAATTCACTGA | -1.15
GCACACAAAAAAAACCACTCTTATCAGGCC | -1.07
